Test results as given in paper PMC4336329 (PLoS ONE, 2015).
Out of some 310,000 compounds screened, about 14,000 (4.5%) showed an effect of 50% or more. The effect is printed as a negative number. Some of the results follow.

These compounds were tested against human ether-à-go-go-related gene (hERG) potassium channel (human, UniProt Q12809) (assay: primary screen, population patch clamp on CHO cells stably expressing hERG).
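Further: peak tail current of the secondary pulse compared with the same well before compound.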

Sequence of human ether-à-go-go-related gene (hERG) potassium channel (Q12809 whole entry, looked up): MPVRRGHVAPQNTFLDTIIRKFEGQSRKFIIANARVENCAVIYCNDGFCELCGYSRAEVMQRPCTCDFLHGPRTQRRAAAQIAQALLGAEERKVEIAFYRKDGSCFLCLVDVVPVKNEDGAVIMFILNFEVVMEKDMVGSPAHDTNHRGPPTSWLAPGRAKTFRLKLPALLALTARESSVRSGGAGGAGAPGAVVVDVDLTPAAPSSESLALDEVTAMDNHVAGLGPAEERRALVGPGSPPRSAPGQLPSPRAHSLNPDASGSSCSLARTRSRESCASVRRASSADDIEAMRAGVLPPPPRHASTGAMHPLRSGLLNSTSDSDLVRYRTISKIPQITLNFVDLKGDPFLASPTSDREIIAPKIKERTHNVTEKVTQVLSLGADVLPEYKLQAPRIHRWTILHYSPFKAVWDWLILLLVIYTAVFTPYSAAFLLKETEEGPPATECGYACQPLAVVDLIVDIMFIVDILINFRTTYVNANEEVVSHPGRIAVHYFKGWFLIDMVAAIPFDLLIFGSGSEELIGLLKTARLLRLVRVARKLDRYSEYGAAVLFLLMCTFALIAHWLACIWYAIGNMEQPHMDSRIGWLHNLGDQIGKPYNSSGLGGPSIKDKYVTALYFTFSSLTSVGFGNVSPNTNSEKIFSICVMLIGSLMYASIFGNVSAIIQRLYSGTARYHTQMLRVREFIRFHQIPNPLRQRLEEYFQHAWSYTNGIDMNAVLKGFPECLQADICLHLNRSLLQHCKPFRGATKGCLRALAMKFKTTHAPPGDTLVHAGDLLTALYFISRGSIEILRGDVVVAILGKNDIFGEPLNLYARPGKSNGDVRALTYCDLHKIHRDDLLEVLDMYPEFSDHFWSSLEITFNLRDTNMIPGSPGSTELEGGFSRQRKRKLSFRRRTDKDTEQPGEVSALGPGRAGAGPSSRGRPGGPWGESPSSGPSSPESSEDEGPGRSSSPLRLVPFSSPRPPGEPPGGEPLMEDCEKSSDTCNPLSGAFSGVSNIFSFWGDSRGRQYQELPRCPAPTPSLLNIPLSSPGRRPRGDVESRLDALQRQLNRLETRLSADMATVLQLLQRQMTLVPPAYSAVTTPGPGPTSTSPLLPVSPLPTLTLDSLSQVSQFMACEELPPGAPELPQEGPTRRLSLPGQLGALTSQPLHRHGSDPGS

SMILES	hERG current change (%, negative = inhibition) at 10uM [%]
COc1cccc(NC(=O)CN(C)S(=O)(=O)c2ccc3[nH]c(=O)oc3c2)c1	12
COc1ccccc1C(=O)NCC(=O)OCc1csc(-c2ccccc2)n1	-4.62
CCOc1ccc2nc(NC(=O)CN3C(=O)C4CCCCC4C3=O)sc2c1 (stereo not shown)	-9.62
CCOc1ccc2[nH]c3c(c2c1)CNCC3	-3.72
CCc1ccc(-n2nnnc2SCC(=O)Nc2ccc(NC(C)=O)cc2)cc1	23.5
Cc1nn(-c2ccc(C(=O)O)cc2)c2c1C(=O)CC(C)(C)C2	15
O=C1c2ccc3c4c(ccc(c24)C(=O)N1NC(=O)C(F)(F)F)CC3	4.47
CN1C(=O)CSC1=Nc1cccc(Cl)c1	-0.00382
COc1cc(C(=O)NCCOc2ccccc2)c(Br)c(OC)c1OC	-31.3
Cc1cc(C)n(-c2nc(C(=O)O)cs2)n1	17.7
CC(C)CN(C(=O)CN1CCC(C)CC1)c1c(N)n(CC(C)C)c(=O)[nH]c1=O	18.7
CC(=O)Nc1ccc(NC(=O)CCCNC(=O)c2ccc(Cl)cc2)cc1	21.8
OCCN(CCO)c1ccc(C(c2ccc(Cl)cc2)c2ccc(N(CCO)CCO)cc2Cl)c(Cl)c1	-9.81
O=C(c1ccc(F)cc1)N1CCN(c2cc(=O)[nH]nc2-c2ccccc2)CC1	-4.51
Nc1nnc(CC(=O)N/N=C\c2ccc(-c3cccc(Cl)c3)o2)s1	-18.4
O=S(=O)(NC1c2cccc3cccc(c23)C1N1CCNCC1)c1ccc(Cl)cc1 (stereo not shown)	-42.3
COC(=O)CN(c1ccc2c(c1)OCO2)S(=O)(=O)c1c(C)[nH]c(=O)[nH]c1=O	-4.17
Cn1c(=O)c2c(nc(CN3CCc4ccccc4C3)n2CC(=O)c2ccccc2)n(C)c1=O	-0.421
CCO/N=C(\C)c1c(O)c(CC)c(-c2ccccc2)n(-c2ccccc2)c1=O	0.757
CSc1ccc(COC(=O)CCS(=O)(=O)c2ccc(C)cc2)cc1	-9.83
O=C1CCCN1CC(=O)N1CCCC(N2CCN(c3cccc(Cl)c3)CC2)C1 (stereo not shown)	8.15
CCC(C)n1c(O)c(/C=N/N2CCOCC2)c(=O)[nH]c1=S (stereo not shown)	-16.4

SMILES	hERG current change (%, negative = inhibition) at 10uM [%]
CC(=O)N(C)c1nc(N)n(-c2ccccc2)n1	-25.2
CCOC(=O)c1c(N2CCN(c3ccccc3)CC2)cc(C)nc1C.O=C([O-])C(=O)[O-]	-72
COc1cccc(NC(=O)CN2CCN(c3ccc(F)cc3)CC2)c1	-17
COCCNC(=O)c1c[nH]c2ccc(OC)cc2c1=O	-17.6
CCC(=O)Nc1nnc(S(=O)(=O)N(CC(C)C)c2ccccc2)s1	21.3
O=C(CCCN1C(=O)c2cccnc2C1=O)Nc1ccc(F)cc1Cl	3.87
C[C@@]12C(=O)N(Cc3ccc(Cl)cc3)CC(=O)N1[C@H]1c3ccccc3OC[C@@H]1[C@@H]2c1ccccc1	7.87
Cc1c(Br)c([N+](=O)[O-])nn1CC(=O)NCCc1c[nH]c2ccccc12	-16.2
Cc1ccc(C(=O)C(C)OC(=O)Cn2[nH]c(=O)c3ccccc3c2=O)cc1 (stereo not shown)	27.2
O=C(O)CCn1cc(C=C2C(=O)NC(=O)NC2=O)c(-c2ccc(Br)cc2)n1	7.08
O=C(OCCNc1nc(-c2ccccc2)nc2ccccc12)c1cccnc1	-35.6
COc1cccc(CN(C)C(=O)c2ccc3c(=O)n4c(nc3c2)CCC4)c1OC	7.82
O=C(Nc1ccc(Cl)cc1)Nc1ccc(N2CCCC2)c(S(=O)(=O)Nc2ccccc2Cl)c1	14.3
COc1ccc(C2c3sc(=O)[nH]c3SC3C(=O)N(c4ccccc4)C(=O)C32)cc1 (stereo not shown)	1.65
O=[N+]([O-])c1ccccc1OCCCOc1cccc2cccnc12	-15.3
NC(=O)C1CCCN1 (stereo not shown)	26.5
CCOC(=O)c1c(N2C(=O)Nc3ccccc3N2O)sc2c1CCCC2	4.51
COCCn1c(=O)[nH]c2cc(C(=O)NCCN3CCN(c4cccc(Cl)c4)CC3)ccc2c1=O	12.8
Cc1nc2nc[nH]n2c(=O)c1NC(=O)c1cccc(OCC(C)C)c1	4.96
CCOC(=O)C1=C(OCc2ccc(Cl)cc2)C2C=C(C)C=CC2N=C1 (stereo not shown)	-69.1
CCOC(=O)CC1=C(C(=O)OCC)C(c2ccc(OC)cc2OC)C(C#N)=C(N)O1 (stereo not shown)	0.829
